Screen size: about 46,000 compounds; about 60 (0.1%) were called active. Not shown: some 3% with an inconclusive outcome. Calls come from the whole dose curve; as a rule, active = well fitted inhibition curve with a large enough effect; inconclusive = small, poorly fitted or top-dose-only effect; inactive = no such curve, though single readings can be large or run the other way. Some of the results follow.
assay: Primary qHTS assay for Inhibitors of ovarian cancer metastasis using an organotypic tumor microenvironment (TME) model.; note: nearly all actives have a fitted effect of over 65% in size;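 for activity change, negative = inhibition: plate controls were DMSO wells for no effect and tomatine positive control wells for full effect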; settings: SKOV3ip1-GFP adhesion/invasion on 3D omental model, fluorescence; series mostly up to 45.8 µM; activity change, negative = inhibition: at the top concentration
In short: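 qHTS, 4-pt dose (0.36-46 umol/L); SKOV3ip1-GFP, 1,200 cells/well, no FBS; primary omental fibroblast/mesothelial co-culture 48 h pre-grown; 2 h RT + 16 h 37 C; PBS wash, 4% PFA; GFP count 488/509 nm.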

Activity change, negative = inhibition, inactive:
CCOCCCNC(=O)c1cc(=O)[nH]c2ccc(S(=O)(=O)N3CCCC3)cc12 69.3%
CCCCCn1c(=O)[nH]c2cc(C(=O)N3CCN(c4cccc(OC)c4)CC3)ccc2c1=O 81.8%
COc1ccc(-c2nc3c(c(SCC(=O)Nc4ccccc4OC)n2)Cc2cccc(C)c2O3)cc1 9.75%
Cc1ccc(-n2c(=O)c3oc4ccccc4c3n(CC(=O)Nc3ccc(F)c(Cl)c3)c2=O)cc1C -9.44%
Cc1cc(C)cc(OCc2cc(=O)n3c4c(sc3n2)CCCC4)c1 -16%
CC(C)Oc1ccc(CNC(=O)C2CCCCN2S(=O)(=O)c2ccc(F)cc2)cc1 (stereo not given) 4.23%
CCC(C)NC(=O)Cc1ccc(NC(=O)N2CCCCc3ccccc32)cc1 (stereo not given) -4.89%
Cc1ccc(-c2nc(CS(=O)CC(=O)N3CCN(c4ccc(F)cc4)CC3)c(C)o2)cc1 (stereo not given) -4.87%
O=C(Nc1ccccc1F)C1CCN(S(=O)(=O)c2ccc3c(c2)CCCN3C(=O)C2CCC2)CC1 13.8%
CCCCN(C)C(=O)c1ccc2c(c1)N(Cc1ccc(F)cc1)C(=O)c1ccccc1S2(=O)=O -3.47%
CC(=O)N1CCOc2cc(S(=O)(=O)Nc3c(C)cccc3C(C)C)c(Cl)cc21 1.51%
Cc1scc(CN2CCN(c3ccc(F)cc3)CC2)c1C -5.58%
COC(=O)c1sccc1S(=O)(=O)N1CCN(c2ccc(Cl)cc2)CC1 3.76%
CC1=C(c2ccc(Cl)cc2)S(=O)(=O)N=C1N1CCC(C(=O)NCCc2ccco2)CC1 -0.741%
COc1ccc(Br)cc1CNC(=O)CCc1cn(Cc2ccc(C)cc2)c2ccccc12 0.972%
O=C(CCCn1c(=O)c2sccc2n(Cc2ccc(Cl)cc2)c1=O)NCc1ccc2c(c1)OCO2 -21.5%
Cc1ccc(CNc2ncccc2-c2nc(-c3ccc(Cl)cc3)no2)cc1 -13.1%
N#CC(=C1Nc2ccccc2S1)c1ccnc(OCc2ccc(CN3CCOCC3)cc2)n1 -4.68%
CC(=O)OCC(=O)[C@@]12N=C(C)O[C@H]1C[C@H]1[C@@H]3CCC4=CC(=O)C=C[C@]4(C)[C@@H]3[C@@H](O)C[C@@]12C 17.1%
CC(C)CC(NC(=O)C1CCCCC1)C(=O)Nc1cccc(C(F)(F)F)c1 (stereo not given) 7.62%
Cc1ccc(-c2nc(S(=O)(=O)c3ccccc3)c(SCC(=O)NC3CCCCC3)o2)cc1 1.11%
Cc1ccc(Cl)cc1NC(=O)c1cc(CN2CCCC2)on1 3.06%
COc1ccc(CCNC(=O)CCc2cn(Cc3ccc(F)cc3)c3ccccc23)cc1OC -25.1%
Cc1ccc(Cl)cc1N1CCN(C(=O)c2nn(C)c3c2CS(=O)(=O)c2ccccc2-3)CC1 -0.358%
O=C(NC1CC1)c1ccc(Cn2c(SCc3ccc(F)cc3)nc3cccnc32)cc1 -1.82%
COc1ccc(-c2cc(C(F)(F)F)nc(SCCC(=O)Nc3cccc(OC)c3)n2)cc1 -7.86%
CCc1ccc(NC(=O)c2ccc(NS(=O)(=O)c3c(C)noc3C)cc2)cc1 0.923%
CCCOc1ccc(C(=O)Nc2ccc(-c3cc4ccccc4oc3=O)c(C)c2)cc1 3.64%
O=c1cc(CSc2ccccc2)[nH]c2ccc(F)cc12 2.11%
CCCNc1ncnc2c1c(-c1ccccc1)cn2-c1ccc(OCC)cc1 -24.2%
CCc1ccc(CNC(=O)c2sc3nc[nH]c(=O)c3c2C)cc1 29.4%
O=C(COc1ccc(F)cc1)Nc1ccc(S(=O)(=O)N(Cc2ccccc2)c2ccccc2)cc1 -4.32%
CCN(C(=O)Cc1c(C(=O)O)c(C)cn1C)c1cccc(Cl)c1 3.1%
COc1ccc(OC)c(CNc2ncnc3c2nc2n3CCCC2)c1 6.33%
CCc1ccc(Nc2nnc(-c3cc4cc(OC)ccc4oc3=O)s2)cc1 0.697%
CC(=O)Nc1ccc(Nc2c(CCC(C)C)c(C)c(C#N)c3nc4ccccc4n23)cc1 0.693%
COc1cc(NC(=O)C(NS(=O)(=O)c2ccc3c(c2)CCCC(=O)N3)C(C)C)cc(OC)c1 (stereo not given) 126%
Cc1ccc(NC(=O)c2sc3nc(-c4ccncc4)ccc3c2N)cc1 1.32%
CCOc1ccc(S(=O)(=O)c2c(C(=O)c3ccc(C)c(C)c3)cnc3ccccc23)cc1 3.96%
COC(=O)c1sccc1S(=O)(=O)N(CC(=O)Nc1ccc(C)c(F)c1)c1ccc(C)c(C)c1 3.29%
Cc1ccccc1C(=O)Nc1nnc(S(=O)(=O)N(C)c2ccc(Cl)cc2)s1 8.65%
COc1ccc(-c2cc(C(F)(F)F)n3nc(C(=O)Nc4sc5c(c4C(=O)OC(C)C)CCC(C)C5)cc3n2)cc1 (stereo not given) -11.9%

outcome, inactive:
CCCSc1ncc(Cl)c(C(=O)Nc2scc(-c3ccc(C)cc3)c2C(=O)OCC)n1
O=C1CC(c2ccc(Cl)cc2)c2cc3c(cc2N1)OCCO3 (stereo not given)
CCc1cccc(C)c1NC(=O)C1CCN(S(=O)(=O)c2cccc3nonc23)CC1
COc1ccc(C(=O)Nc2c(C(=O)c3ccc(F)cc3)oc3ccccc23)cc1
O=C(CS(=O)(=O)c1cccc2nsnc12)Nc1ccc(F)cc1F
N#Cc1ccccc1NC(=O)C(=O)NCC(c1ccc2c(c1)OCO2)N1CCOCC1 (stereo not given)
CC(C)CCNC(=O)c1c2c(nc3ccccc13)C(=O)N(C1CCCCC1)C2
CCOC(=O)c1ccccc1NC(=O)c1cc2c(s1)-c1ccccc1SC2
COc1ccccc1N1CCN(S(=O)(=O)CCNC(=O)COc2ccccc2F)CC1
CC(C)c1ccc(NC(=O)CN2C(=O)CSc3ccc(S(=O)(=O)N4CCCC4)cc32)cc1
CCc1cccc(C)c1NC(=O)c1cc(S(=O)(=O)N2CCCCCC2)cn1C
Cc1cccc(N2CCN(C(=O)c3cccn3-c3nnc(N4CCCCC4)s3)CC2)c1C
COc1ccc(-c2cc(C(C)=O)c(C)n2CCC(=O)Nc2ccc(C)c(Cl)c2)cc1
COc1ccc(NC(=O)CCn2c(-c3ccc(F)cc3)cc(C(C)=O)c2C)c(OC)c1
CCc1c(C)nc(SCc2nc(-c3ccccc3C)no2)[nH]c1=O
Cc1ccc(CNC(=O)CCc2nnc3n(C)c(=O)c4sccc4n23)cc1
Cc1ccccc1Cn1c(=O)n(CCc2ccccc2)c(=O)c2sc3ccccc3c21
CCCN(CCC)C(=O)C1CCCN(S(=O)(=O)c2cc(Br)cc3c2N(C(=O)CC)CC3)C1 (stereo not given)

From PubChem BioAssay AID1963576 (National Center for Advancing Translational Sciences (NCATS), 2024)
